The results in this text go back to paper PMC4336329 (PLoS ONE, 2015).

The campaign covered roughly 310,000 compounds. About 14,000 (4.5%) showed an effect of 50% or more. Effects have a minus sign here. The list shows a part of the results.
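Also: peak tail current of the secondary pulse compared with the same well before compound.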

This assay deals with human ether-à-go-go-related gene (hERG) potassium channel (human, UniProt Q12809). Nature of the assay: primary screen, population patch clamp on CHO cells stably expressing hERG.
Chain of human ether-à-go-go-related gene (hERG) potassium channel (Q12809 whole entry, looked up): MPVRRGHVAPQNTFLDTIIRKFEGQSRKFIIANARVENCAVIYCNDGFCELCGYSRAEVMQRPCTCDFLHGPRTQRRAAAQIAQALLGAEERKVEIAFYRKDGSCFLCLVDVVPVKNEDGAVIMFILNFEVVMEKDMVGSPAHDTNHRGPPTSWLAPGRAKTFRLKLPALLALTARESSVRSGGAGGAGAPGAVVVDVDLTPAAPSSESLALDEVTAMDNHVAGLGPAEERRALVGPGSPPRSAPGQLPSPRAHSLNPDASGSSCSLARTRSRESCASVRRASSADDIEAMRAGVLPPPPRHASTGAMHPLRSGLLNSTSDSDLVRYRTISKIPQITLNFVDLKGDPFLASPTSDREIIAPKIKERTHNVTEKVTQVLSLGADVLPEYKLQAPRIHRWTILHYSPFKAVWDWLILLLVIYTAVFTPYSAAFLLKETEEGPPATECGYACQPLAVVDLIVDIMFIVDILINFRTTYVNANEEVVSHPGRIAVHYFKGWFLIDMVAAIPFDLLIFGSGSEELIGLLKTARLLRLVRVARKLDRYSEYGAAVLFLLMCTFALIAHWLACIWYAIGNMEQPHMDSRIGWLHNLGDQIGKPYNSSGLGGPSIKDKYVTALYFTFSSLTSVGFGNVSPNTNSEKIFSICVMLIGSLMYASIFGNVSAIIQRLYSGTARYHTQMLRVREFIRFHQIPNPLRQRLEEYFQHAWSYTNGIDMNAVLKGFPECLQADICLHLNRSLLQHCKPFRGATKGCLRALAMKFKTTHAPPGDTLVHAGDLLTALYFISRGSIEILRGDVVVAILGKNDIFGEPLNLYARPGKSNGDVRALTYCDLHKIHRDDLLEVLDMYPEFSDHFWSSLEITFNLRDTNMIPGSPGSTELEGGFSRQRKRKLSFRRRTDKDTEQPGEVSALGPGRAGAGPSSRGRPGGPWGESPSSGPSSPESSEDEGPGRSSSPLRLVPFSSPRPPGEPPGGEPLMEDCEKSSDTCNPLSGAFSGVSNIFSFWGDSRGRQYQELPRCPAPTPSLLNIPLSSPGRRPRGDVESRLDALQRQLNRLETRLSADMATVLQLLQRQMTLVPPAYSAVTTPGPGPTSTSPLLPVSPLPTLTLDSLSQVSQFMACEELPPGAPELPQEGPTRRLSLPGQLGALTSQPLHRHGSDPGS
In the case of `CC(=O)Nc1nnc(CSCc2ccccc2F)s1`, the “hERG current change (%, negative = inhibition) at 10uM” value stood at 12.3%.

In the case of `CC(=O)c1sc(NC(=O)C(C)Oc2ccc3c(C)cc(=O)oc3c2)nc1C` (stereo not shown), the “hERG current change (%, negative = inhibition) at 10uM” value was determined as 13.6%. The same measure for `Cc1cc([N+](=O)[O-])ccc1NC(=O)C[n+]1ccc(N(C)C)cc1.[Cl-]`: -7.98%. Under `CN(C)CCCN1C(=O)C(O)=C(C(=O)c2cc3ccccc3o2)C1c1ccccc1` (stereo not shown) stands 2.75%; under `Cc1nn(-c2ccccc2)c(Oc2ccc(F)cc2)c1/C=N/n1cnnc1`, -31.5%; under `CC(=O)Nc1ccc(S(=O)(=O)NC(C)c2ccccc2)cc1` (stereo not shown), 13.2%. `Cc1ccnc(N=Cc2c(O)ccc3oc4c(c23)CCCC4)c1`: the “hERG current change (%, negative = inhibition) at 10uM” value turned out to be 0.567%. Regarding `O=C(CNC(=O)c1ccco1)OCC(=O)c1ccccc1Cl`, the “hERG current change (%, negative = inhibition) at 10uM” value stood at 0.293%. For the molecule `COC(=O)N1CCc2c(sc(NC(=O)C3=COCCO3)c2C#N)C1`, the “hERG current change (%, negative = inhibition) at 10uM” value stood at 2.52%.

With `CC(C)Cn1c(-c2ccco2)nc2c(c(=O)c3ccccc3n2C)c1=O`, the “hERG current change (%, negative = inhibition) at 10uM” value is recorded as -59.3%. The same measure for `CCOc1ccccc1C(=O)Nc1cc(=O)n(C)c(=O)n1C`: 4.38%; for `CCOc1ccc(-n2c(C)cc(C(=O)CCl)c2C)cc1`: -11.9%; for `N#Cc1c(-c2ccccc2F)cc(C2CC2)nc1SCC(=O)c1cccs1`: 33.9%. Under `COc1ccc(NC(=O)/C(=C\c2ccc(OS(=O)(=O)c3ccc(C)cc3)cc2)NC(=O)c2ccccc2)cc1` stands 17.1%; under `O=C1c2ccccc2C(=O)N1OCc1ccccc1[N+](=O)[O-]`, 23.7%.

For the molecule `CC(C)C[C@@]12C(=O)N(c3cccc(Cl)c3)C(=O)N1[C@H](c1ccc(F)cc1)[C@@H]1C(=O)N(C3CCCCC3)C(=O)[C@@H]12`, the “hERG current change (%, negative = inhibition) at 10uM” value came to 4.21%.

On to `CCN(CC)C(=S)SC1=CCS(=O)(=O)C1`, for which the “hERG current change (%, negative = inhibition) at 10uM” value is 5.09%. Take `Cc1cc(=O)oc(C)c1C(=O)N1CCN(c2ccc(F)cc2)CC1`: the “hERG current change (%, negative = inhibition) at 10uM” value is recorded as 5.27%. Consider `Cc1oncc1C(=O)Nc1cccc(C#N)c1`, for which the “hERG current change (%, negative = inhibition) at 10uM” value worked out at 4.43%. With `CCOC(=O)/C(C#N)=C\c1ccc(N2CCN(C)CC2)cc1`, the “hERG current change (%, negative = inhibition) at 10uM” value was -38.2%. In the case of `COCCNC(=S)N(CCc1c(C)[nH]c2ccc(OC)cc12)Cc1ccco1`, the “hERG current change (%, negative = inhibition) at 10uM” value is recorded as -12.4%. As for `CN(c1nc(-c2ccc(Br)cc2)cs1)C1CCS(=O)(=O)C1` (stereo not shown), the “hERG current change (%, negative = inhibition) at 10uM” value was found to be 1.16%.

As to `CCc1cc(=O)oc2c(C)c(OCC(=O)NCCN3CCOCC3)ccc12`, the “hERG current change (%, negative = inhibition) at 10uM” value is recorded as -0.348%. The same measure for `Cc1ccc(N(C)S(=O)(=O)c2cccc(C(=O)Nc3nnc(C4CC4)s3)c2)cc1`: 15.9%. Under `N#Cc1c(N)nc(Sc2ccc(Cl)cc2)c(C#N)c1-c1ccccc1Cl` stands 6.26%; under `Cc1ccccc1Nc1c([N+](=O)[O-])ccc2nonc12`, -3.58%; under `Br.COc1ccc(C(=O)CN2Cc3ccccc3C2=N)cc1`, -42.3%. Consider `C/C(=N\NC(=O)c1ccco1)c1ccc(NC(=O)c2ccccc2)cc1`, for which the “hERG current change (%, negative = inhibition) at 10uM” value amounted to 1.17%. For the molecule `O=C(NCN1CCCCC1)c1cnccn1`, the “hERG current change (%, negative = inhibition) at 10uM” value is -4.52%. As for `COC(=O)c1ccc(CSc2nnc(-c3ccncc3)n2Cc2ccccc2)o1`, the “hERG current change (%, negative = inhibition) at 10uM” value is given as -12.7%.

In the case of `CCC(=O)c1cc2c(cc1NC(=O)c1cccs1)OCCO2`, the “hERG current change (%, negative = inhibition) at 10uM” value stood at 1.86%.

In the case of `O=C(Nc1ccc(F)c(F)c1)C1CCCN(S(=O)(=O)c2cnc[nH]2)C1` (stereo not shown), the “hERG current change (%, negative = inhibition) at 10uM” value is reported as -9.69%. As for `CC(C)(C)N(CC(=O)NC1CCCCC1)C(=O)CS(=O)CC(=O)Nc1ccc(F)cc1` (stereo not shown), the “hERG current change (%, negative = inhibition) at 10uM” value is listed as 9.23%.

With `COc1ccc(-n2c(=O)c3ccccc3n(CC(=O)NC3CCCC3)c2=O)c(OC)c1`, the “hERG current change (%, negative = inhibition) at 10uM” value is on record as -0.373%. `COc1cccc(N2CCN(S(=O)(=O)c3c(C)[nH]c(C)c3C(=O)N3CCCC3)CC2)c1`: the “hERG current change (%, negative = inhibition) at 10uM” value was found to be 9.06%. In the case of `CCN1CCN(CCNC(=O)c2ccc(CS(=O)c3ccc(Cl)cc3)o2)CC1` (stereo not shown), the “hERG current change (%, negative = inhibition) at 10uM” value is given as 18%. As to `COc1ccc(S(=O)(=O)N2CCOC23CCN(S(=O)(=O)c2ccc(F)cc2)CC3)cc1`, the “hERG current change (%, negative = inhibition) at 10uM” value is -13.8%. The same measure for `O=C(NC1CCCC1)C(c1cccs1)N(C(=O)c1ccno1)c1ccccc1` (stereo not shown): 13.2%; for `CCN(CC(=O)Nc1ccccc1OC)C(=O)c1ccc(NC(=O)c2cccs2)cc1`: -2.28%; for `CC1(c2ccccc2)NC(=O)N(CC(=O)Nc2ccc(Cl)c(S(=O)(=O)N3CCCCC3)c2)C1=O` (stereo not shown): -8.09%. For the molecule `CCc1nc(-c2ccccc2)c2ccccn12.O=C(O)C(=O)O`, the “hERG current change (%, negative = inhibition) at 10uM” value is given as -11.2%. `O=C(NCC1CCCO1)c1ccc(NC(=O)c2cccc(Cl)c2)cc1` (stereo not shown): the “hERG current change (%, negative = inhibition) at 10uM” value came to 1.14%. For the molecule `CCOC(=O)c1sc(=S)n(C)c1NC(=O)c1ccccc1Cl`, the “hERG current change (%, negative = inhibition) at 10uM” value stood at 16.5%. The same measure for `COc1cccc(OC)c1C(=O)Nn1c(-c2cccc(C)c2)nc2ccccc2c1=O`: 11.1%.

For `CCCCCn1c(Sc2nc3ccccc3s2)nc2c1c(=O)[nH]c(=O)n2C`, the “hERG current change (%, negative = inhibition) at 10uM” value is recorded as -39.3%. Under `CC(Cc1ccccc1)N1C(=O)c2ccccc2C1=O` (stereo not shown) stands -2.85%; under `CCOc1ccc(N(CC(=O)NCCSc2ccccn2)S(C)(=O)=O)cc1`, 6.19%. As to `O=C(OCn1nnc2ccccc2c1=O)c1ccco1`, the “hERG current change (%, negative = inhibition) at 10uM” value was -5.88%. On to `CC(C)CC(=O)N1CCN(C(=O)c2ccco2)CC1`, for which the “hERG current change (%, negative = inhibition) at 10uM” value is reported as 10.7%.

As to `COc1ccc(-c2nc(CS(=O)(=O)CC(=O)NCc3cccc(Br)c3)c(C)o2)cc1`, the “hERG current change (%, negative = inhibition) at 10uM” value was -31.2%.

`Cc1ccc(CNCCc2ccc(F)cc2)s1`: the “hERG current change (%, negative = inhibition) at 10uM” value is reported as -5.62%.

In the case of `CCn1c(SCC(=O)N/N=C/c2ccc(C)s2)nc2ccccc21`, the “hERG current change (%, negative = inhibition) at 10uM” value is recorded as -20.7%. With `CSCCC(NC(=O)c1ccccc1Br)C(=O)NC(C)CCc1ccccc1` (stereo not shown), the “hERG current change (%, negative = inhibition) at 10uM” value came to 18.6%. Consider `COC(=O)/C(=C(O)\C=C\c1ccccc1[N+](=O)[O-])c1nc2ccccc2[nH]1`, for which the “hERG current change (%, negative = inhibition) at 10uM” value is 12.4%. Regarding `Cc1ccc(NC(=S)NCc2ccc(S(N)(=O)=O)cc2)cc1Cl`, the “hERG current change (%, negative = inhibition) at 10uM” value worked out at 18.2%.
